According to the supplement of paper PMC4967469:
A lower IC50 marks a more sensitive line; a fit beyond the top or the lowest dose is shown as a bound at that dose. The AUC spans the tested range (256-fold, ending at the top dose) of the same fit; the more sensitive the line, the further below 1. For some assays here: Where the top dose is marked as inferred, it was calculated from the reported fits. For some assays here: Drugs with an entry number were screened twice under separate entries, and the two screens often disagree.

Legend:
Test in all cases: Viability of human cancer cell lines after 72 h of drug (GDSC screen)
LFM-A13 = compound: C/C(O)=C(\C#N)C(=O)Nc1cc(Br)ccc1Br [LFM-A13]; conditions: top dose 16 µM; top dose inferred
Experimental: (§1)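 Human cancer cell lines in 384-well plates, medium with 10% serum, drug for 72 h over a 256-fold dose range (nine 2-fold or five 4-fold steps up to the top dose). Adherent lines were fixed and stained with the nucleic acid dye Syto60, suspension lines read with resazurin; signal relative to control wells, capped at 0 and 100%. One two-parameter sigmoid per drug and line, fitted in a mixed model over all curves with the slope shared within a line.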

Bicalutamide = compound: CC(O)(CS(=O)(=O)c1ccc(F)cc1)C(=O)Nc1ccc(C#N)c(C(F)(F)F)c1 [Bicalutamide]; conditions: top dose inferred
Experimental: as §1

AUY922 = compound: CCNC(=O)c1noc(-c2cc(C(C)C)c(O)cc2O)c1-c1ccc(CN2CCOCC2)cc1 [AUY922]; conditions: top dose 0.256 µM; top dose inferred
Experimental: as §1

KIN001-270 = compound: Cc1ccc(Nc2cc(-c3cccc(N4C(=O)c5ccccc5C4=O)c3)ncn2)cc1NS(C)(=O)=O [KIN001-270]; conditions: top dose 20 µM; top dose inferred
Experimental: as §1

Nilotinib = compound: Cc1cn(-c2cc(NC(=O)c3ccc(C)c(Nc4nccc(-c5cccnc5)n4)c3)cc(C(F)(F)F)c2)cn1 [Nilotinib]; conditions: top dose 2 µM
Experimental: as §1

GNF-2 = compound: NC(=O)c1cccc(-c2cc(Nc3ccc(OC(F)(F)F)cc3)ncn2)c1 [GNF-2]; conditions: top dose 1.28 µM; top dose inferred
Experimental: as §1

Gemcitabine = compound: Nc1ccn([C@@H]2O[C@H](CO)[C@@H](O)C2(F)F)c(=O)n1 [Gemcitabine]; conditions: top dose 1.024 µM
Experimental: as §1

T0901317 = compound: O=S(=O)(c1ccccc1)N(CC(F)(F)F)c1ccc(C(O)(C(F)(F)F)C(F)(F)F)cc1 [T0901317]; conditions: top dose 10.24 µM; top dose inferred
Experimental: as §1

MP470 = compound: S=C(NCc1ccc2c(c1)OCO2)N1CCN(c2ncnc3c2oc2ccccc23)CC1 [MP470]; conditions: top dose 20 µM; top dose inferred
Experimental: as §1

TW-37 = compound: CC(C)c1ccccc1Cc1cc(C(=O)Nc2ccc(S(=O)(=O)c3ccccc3C(C)(C)C)cc2)c(O)c(O)c1O [TW-37]; conditions: top dose 5 µM
Experimental: as §1

[1] = top dose 1.024 µM, screen: GDSC drug entry 150
[2] = top dose 10 µM, screen: GDSC drug entry 1502

Cell Line	AUC (LFM-A13)	IC50 (LFM-A13) [nM]	AUC (Bicalutamide; [1])	IC50 (Bicalutamide; [1]) [nM]	AUC (Bicalutamide; [2])	IC50 (Bicalutamide; [2]) [nM]	AUC (AUY922)	IC50 (AUY922) [nM]	AUC (KIN001-270)	IC50 (KIN001-270) [nM]	AUC (Nilotinib)	IC50 (Nilotinib) [nM]	AUC (GNF-2)	IC50 (GNF-2) [nM]	AUC (Gemcitabine)	IC50 (Gemcitabine) [nM]	AUC (T0901317)	IC50 (T0901317) [nM]	AUC (MP470)	IC50 (MP470) [nM]	AUC (TW-37)	IC50 (TW-37) [nM]
KOPN-8 (B-cell leukaemia, suspension)	0.971	> 16000	0.988	> 1020	0.988	> 10000	0.525	18.6	0.964	> 20000	0.981	> 2000	0.986	> 1280	0.295	18.7	0.919	> 10200	0.87	14300		
NOS-1 (osteosarcoma, adherent)	0.971	> 16000	0.939	> 1020	0.557	928	0.445	10.9	0.926	> 20000	0.873	> 2000	0.773	618			0.602	1310	0.486	1130	0.422	182
NCI-H1963 (small cell lung carcinoma, suspension)	0.977	> 16000	0.991	> 1020			0.601	29.2	0.973	> 20000	0.991	> 2000	0.986	> 1280	0.878	808					0.549	418
MMAC-SF (melanoma, adherent)	0.959	> 16000	0.986	> 1020	0.986	> 10000	0.585	27.6	0.987	> 20000	0.963	> 2000	0.963	> 1280	0.86	919	0.985	> 10200	0.911	> 20000		
LB647-SCLC (small cell lung carcinoma, semi-adherent)	0.965	> 16000	0.985	> 1020			0.831	189			0.985	> 2000	0.947	> 1280	0.221	8.68					0.625	724
MHH-NB-11 (neuroblastoma, adherent)	0.985	> 16000	0.985	> 1020			0.835	193	0.981	> 20000	0.973	> 2000	0.985	> 1280	0.904	> 1020	0.985	> 10200	0.979	> 20000		
RPMI-8226 (myeloma, suspension)	0.988	> 16000	0.98	> 1020	0.986	> 10000	0.654	40.1	0.98	> 20000	0.911	> 2000	0.986	> 1280			0.951	> 10200	0.945	> 20000	0.421	196
KELLY (neuroblastoma, adherent)	0.98	> 16000	0.989	> 1020	0.984	> 10000	0.85	167	0.977	> 20000	0.985	> 2000	0.989	> 1280			0.941	> 10200	0.672	3590	0.283	81.6
EHEB (lymphoid neoplasm, suspension)	0.958	> 16000	0.976	> 1020	0.972	> 10000	0.5	16.1			0.933	> 2000	0.979	> 1280	0.617	155					0.663	1100
SK-N-FI (neuroblastoma, adherent)	0.989	> 16000	0.989	> 1020	0.987	> 10000	0.901	> 256	0.978	> 20000	0.989	> 2000	0.987	> 1280	0.972	> 1020	0.989	> 10200	0.973	> 20000		
DB (B-cell lymphoma, suspension)	0.968	> 16000	0.982	> 1020	0.908	> 10000	0.764	104	0.946	> 20000	0.906	> 2000	0.98	> 1280	0.388	30.3	0.947	> 10200	0.93	> 20000		
GAK (melanoma, adherent)			0.989	> 1020	0.965	> 10000	0.671	46.5	0.985	> 20000	0.989	> 2000	0.989	> 1280	0.707	237	0.971	> 10200	0.85	14100	0.771	1830
OCI-M1 (acute myeloid leukaemia, suspension)	0.995	> 16000	0.993	> 1020	0.993	> 10000	0.662	40	0.922	18200	0.995	> 2000	0.995	> 1280	0.358	28.7			0.898	14500	0.78	1570
IM-9 (myeloma, suspension)	0.983	> 16000	0.991	> 1020	0.983	> 10000	0.734	66.2			0.992	> 2000	0.982	> 1280	0.753	300					0.605	581
